Molecules are shown by their SMILES. The campaign covered roughly 52,000 compounds. About 1,700 (3.3%) were called active. Cut-off read from the data, not from the text of the source: active = survival mostly below about 52% (no sharp cut-off); inactive = mostly above about 56%. The list shows a part of the results.

The test concerns Wild type. The test can be described thus: S. aureus survival, RN4220 and DeltatarO strains – OD600, teichoic acid synthesis inhibitors, primary screen (AID 463173). To be noted: S. aureus RN4220 wild type/DeltatarO growth, OD600, 18 h, active compounds read low, screened at 18.75 µg/mL (by protocol).
With `OCc1cnc(SCc2ccccc2F)n1Cc1ccc(F)cc1`, the survival is inactive: 76%.
The same measure for `Nc1n[nH]c2c1C1(CCCC1)Cc1ccccc1-2`: inactive: 137%.
For `Cc1cc(C)cc(NC(=O)Cc2noc3ccccc23)c1` the value was inactive: 90%; for `O=C(c1ccccc1)N1c2nc(-c3ccco3)nn2C2(CCCCC2)[C@@H]2CCCC[C@@H]21`, inactive: 84%.
Turning to `Cc1ccccc1OCc1ccc(-c2nc(C#N)c(N3CCN(c4cccc(Cl)c4)CC3)o2)o1`, the survival was inactive: 96%.
The same measure for `Cc1cc(C)c(NC(=O)C2CCCN(S(=O)(=O)c3c(C)noc3C)C2)c(C)c1` (stereo not drawn): inactive: 73%; for `Cc1cc(C)c(S(=O)(=O)Nc2nnc(C(F)(F)F)s2)c(C)c1`: inactive: 86%.
With `CCCCCCOc1ccc(C2C(=O)N(C3CCCCC3)CC(=O)N2C2CCCCC2)cc1` (stereo not drawn), the survival is inactive: 69%.
`O=c1[nH]c2cc3c(cc2cc1CN(Cc1ccc2c(c1)OCO2)S(=O)(=O)c1ccc(F)cc1)OCO3`: the survival is inactive: 102%.
The same measure for `CCC(=O)N1CCc2cc(S(=O)(=O)NCCC(=O)Nc3ccc(N(CC)CC)cc3C)ccc21`: inactive: 76%.
On to `CCN(CC)S(=O)(=O)c1ccc(C(=O)NCCSc2c(-c3ccccc3)[nH]c3ccccc23)cc1`, for which the survival is inactive: 100%.
For `Cc1ccc2cccc(NC(=S)NC(=O)c3ccn(C)n3)c2n1`, the survival was inactive: 104%.
On to `O=C(c1ccc2c(c1)N(Cc1ccc(F)cc1)C(=O)c1ccccc1S2(=O)=O)N1CCCCC1`, for which the survival was inactive: 122%.
For `COc1cc(NC(=O)CSc2c3c(nc4ccccc24)CCC3)cc(OC)c1OC` the value was inactive: 74%; for `NC(=O)c1cc(S(=O)(=O)N2CCN(c3cccc(C(F)(F)F)c3)CC2)cs1`, inactive: 91%.
Turning to `O=C(CSc1nc(-c2cccc(F)c2)[nH]c1-c1ccccc1)Nc1ccc2c(c1)OCO2`, the survival was inactive: 43%.
As for `O=C(CSc1nc2ccccc2nc1Cc1ccc(Cl)cc1)N1CCN(c2ccccc2)CC1`, the survival was inactive: 77%.
Take `CC1CCCCN1S(=O)(=O)c1ccc(S(=O)(=O)NCc2ccc3c(c2)OCO3)cc1` (stereo not drawn): the survival is inactive: 108%.
For `CCOC(=O)C1(Cc2ccc(O)cc2)NC(c2ccccc2F)C2C(=O)N(C)C(=O)C21` (stereo not drawn) the value was inactive: 114%; for `COc1cc(NC(=O)c2cc3cc4ccc(C)cc4nc3o2)cc(OC)c1OC`, inactive: 87%.
The same measure for `CCc1ccccc1N(C)C(=O)C1CCCN(c2ncnc3c2nc2n3CCCCC2)C1` (stereo not drawn): inactive: 75%; for `Cc1ccc(-n2ncc(C(=O)NCc3ccco3)c2C2CCN(C(=O)OC(C)(C)C)CC2)cc1C`: inactive: 72%.
`Cc1c(C(=O)Nc2cc(F)ccc2F)sc2nc(-c3ccc(F)cc3)cn12`: the survival is inactive: 136%.
For `CCc1c(C)c2cc3c(c(C)c2oc1=O)OCN(CCc1ccccc1F)C3` the value was inactive: 110%.
In the case of `CCCCN(C(=O)C1CCC(CNS(=O)(=O)c2cccc3nsnc23)CC1)c1ccccc1` (stereo not drawn), the survival is inactive: 72%.
For `CCOC(=O)c1c(NC(=O)c2ccc(OCC)c(Br)c2)sc2c1CCCC2` the value was inactive: 67%.
Regarding `Cc1cc2oc(=O)c(CC(=O)NCCc3ccccc3F)c(C)c2c2occ(C(C)(C)C)c12`, the survival is inactive: 103%.
The same measure for `CC(=O)Nc1cc(C(=O)NCc2ccc(F)cc2)ccc1Sc1ccc(F)cc1`: inactive: 71%.
Consider `Cc1ccc(C)c(S(=O)(=O)c2nnn3c2nc(N2CCN(C)CC2)c2sccc23)c1`, for which the survival is inactive: 103%.
The same measure for `COc1ccc(CC(=O)NCC(c2cccs2)S(=O)(=O)c2ccc(F)c(C)c2)cc1` (stereo not drawn): inactive: 119%; for `Cc1ccc(S(=O)(=O)Nc2nnc(CC(C)(C)C)s2)cc1`: inactive: 107%; for `CC(=O)Nc1ccc(NC(=O)CN(C)S(=O)(=O)c2ccc3c(c2)CCCC(=O)N3)cc1`: inactive: 56%.
For `O=c1c2cc3c(cc2nc2sc(Nc4cccc([N+](=O)[O-])c4)nn12)OCO3` the value was inactive: 124%; for `Cc1ccccc1CSc1ncc(Cl)c(C(=O)Nc2nc3ccc(F)cc3s2)n1`, inactive: 115%.
For `COc1ccccc1C(=O)N/C(=C\c1cn(S(=O)(=O)N(C)C)c2ccccc12)C(=O)NCCCn1ccnc1`, the survival is inactive: 101%.
In the case of `CCc1ccc(CNC(=O)C2CCCN(c3nnc(C)c4c(C)n(-c5ccccc5)nc34)C2)cc1` (stereo not drawn), the survival was inactive: 73%.
For `Cc1cccc(CN2CCC(CNC(=O)Cn3ncc4c([nH]c5ccc(C)cc54)c3=O)CC2)c1` the value was inactive: 129%.
For `COc1ccccc1C(=O)Nc1nc2n(n1)C(c1ccc(F)cc1)C=C(c1ccc(Cl)cc1)N2` (stereo not drawn) the value was inactive: 46%; for `CCOC(=O)c1cc(S(=O)(=O)NCc2ccc(Cl)cc2)[nH]n1`, inactive: 76%; for `COc1ccccc1NC(=O)C1=C(C)Nc2nc(SC)nn2C1c1ccccc1Cl` (stereo not drawn), inactive: 78%.
The same measure for `Cc1cc2n(n1)CCC(=O)N2Cc1ccc(C(=O)Nc2cc(Cl)ccc2C)cc1`: inactive: 77%; for `COc1ccccc1C(=O)Nc1ccc2nc(SCC(=O)N3CCCc4ccccc43)sc2c1`: inactive: 92%; for `COc1ccc(OC)c(NC(=O)C2CCCN(S(=O)(=O)c3ccc4c(c3)CCCC(=O)N4)C2)c1` (stereo not drawn): inactive: 99%.
In the case of `COc1ccc(NC(=O)c2ccco2)cc1NC(=O)c1cc(Cl)ccc1OC`, the survival is inactive: 65%.
Take `O=S1(=O)c2ccccc2N(Cc2cccc(F)c2)c2ccccc21`: the survival is inactive: 65%.
Regarding `COc1cccc(-c2cc(C(F)(F)F)nc(NCCc3ccc(OC)c(OC)c3)n2)c1`, the survival was inactive: 25%.
On to `CCCN(CCC)C(=O)Cn1c(=O)n(-c2cccc(C)c2)c(=O)c2c1c1cc(OC)ccc1n2C`, for which the survival was inactive: 72%.
For `CSc1ccc(-c2nnn(CC(=O)Nc3sc4c(c3C#N)CCC(C(C)(C)C)C4)n2)cc1` (stereo not drawn) the value was inactive: 82%; for `CCCCOc1ccc(C(C)NC(=O)CN2C(=O)CSc3ccc(S(=O)(=O)N4CCOCC4)cc32)cc1` (stereo not drawn), inactive: 65%; for `O=C(CN1CCCN(Cc2cccc(Cl)c2)S1(=O)=O)Nc1ccc2c(c1)OCCO2`, inactive: 77%.
The same measure for `CC(C)CC(=O)NCC(c1ccc2c(c1)OCO2)N1CCN(c2ccccc2)CC1` (stereo not drawn): inactive: 77%.
For `COc1ccc(-c2[nH]nc3nc(-c4cc(Br)ccc4OC)cc(C(=O)O)c23)cc1` the value was inactive: 88%; for `Cc1c(C(=O)OC2CCCCC2)[nH]c2c1C(=O)CC(c1ccc(F)cc1)C2` (stereo not drawn), inactive: 83%.

Values taken from PubChem BioAssay AID463173 (ICCB-Longwood Screening Facility, Harvard Medical School, 2010).
